# Laboratory results taken from the supplement of paper PMC12217912.
# This is one part of the list. The full chains were built here from the parent and the listed change. Values near 0.05 are background.
# B1: TEV protease; numbered along this chain (parent)
# chain: MGESLFKGPRDYNPISSSICHLTNESDGHTTSLYGIGFGPFIITNKHLFRRNNGTLVVQSLHGVFKVKDTTTLQQHLVDGRDMIIIRMPKDFPPFPQKLKFREPQREERICLVTTNFQTKSMSSMVSDTSCTFPSGDGIFWKHWIQTKDGQCGSPLVSTRDGFIVGIHSASNFTNTNNYFTSVPKNFMELLTNQEAQQWVSGWRLNADSVLWGGHKVFMVKPEEPFQPVKEATQL
# Variants of: B1
# Assay: raw area under fraction-flipped curve 0-4 h after induction (AUC4h, not background-subtracted), DNA-recorder readout of cleavage of the substrate (dimensionless); higher = more cleavage of the substrate by the protease variant
# Settings: temperature: 34 °C; time window: 0-4 h after rhamnose induction
# Method: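 In vivo DNA recorder in E. coli TOP10(DE3) ΔrhaA at 34 °C. Each TEVp single-site mutant (parent TEVp 0) is paired with a single-site variant of the 7-mer TEVs (canonical ENLYFQ|S). The substrate sits between flexible linkers in a Bxb1-sfGFP-TEVs-SsrA fusion, so cleavage stabilises Bxb1 and speeds flipping of a recombination array, read by NGS. The value is the raw area under the fraction-flipped curve over 0-4 h after rhamnose induction (AUC4h), with ≥20 reads per time point. It is not background-subtracted; inactive controls average about 0.047.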
# 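Further: Bxb1 expression induced with 0.2% (w/v) L-rhamnose at OD600 near 0.5, cultures sampled hourly, flipped fraction per protease–substrate barcode pair counted by paired-end Illumina sequencing.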
Variant,area with substrate ENLYFQA,area with substrate ENLYFQD,area with substrate ENLYFQF,area with substrate ENLYFQH,area with substrate ENLYFQK,area with substrate ENLYFQM,area with substrate ENLYFQN,area with substrate ENLYFQR,area with substrate ENLYFQS,area with substrate ENLYFQT,area with substrate ENLYFQY,area with substrate ENLYFQG,area with substrate ENLYFQI,area with substrate ENLYFQQ,area with substrate ENLYFQW,area with substrate ENLYFQC,area with substrate ENLYFQL,area with substrate ENLYFQV,area with substrate ENLYFQP
G37R,0.0573,0.0744,0.0706,0.0712,0.0702,0.058,0.052,0.0556,0.0755,0.0639,0.0579,,,,,,,,
G37L,0.0889,0.0616,,0.0669,0.0666,,,0.0613,0.0753,0.0628,,0.0789,0.0577,0.0355,0.0671,,,,
D11I,0.0968,,,0.0861,,,0.0705,0.0666,0.0915,,0.0943,0.156,,,0.0506,0.0953,0.0645,0.0729,
D11R,0.0895,0.072,0.0796,0.0986,0.0732,0.0726,,,0.112,0.077,0.0677,0.111,0.0682,,0.068,0.122,0.0593,0.0593,0.0553
D11K,0.0738,0.0629,,,0.0749,0.0635,0.0782,0.046,0.0945,0.0636,0.0751,0.087,,0.0808,0.0664,0.115,0.0598,0.0662,
L22A,0.0861,0.0539,0.052,0.0617,0.0552,0.0451,,0.0456,0.0681,0.0537,0.0526,0.141,0.0533,,0.0574,0.0867,0.0525,0.0542,0.0527
I36N,0.0658,0.0327,0.0631,0.0429,0.0449,0.0586,0.0518,0.049,0.0689,0.0423,0.0689,0.0618,0.0451,0.0553,0.0528,0.0379,0.0396,,0.0528
I36C,0.0716,0.0631,,,0.0502,0.0854,0.0795,,0.0961,0.0639,,0.0497,,0.061,0.0654,0.101,0.0616,,0.0501
T31R,0.0362,,,0.0741,0.044,0.0797,0.057,,0.0655,,0.0626,0.0676,0.0531,,,0.0748,0.057,,0.0544
I43V,0.0968,,,0.0862,0.0653,0.0793,,0.0642,0.101,0.0577,0.065,0.0917,,0.0635,,,,0.0413,0.0652
Y12P,0.104,0.071,0.0736,0.0873,0.0596,0.107,,0.0551,0.0967,0.0643,0.0792,0.0735,0.0559,0.0698,0.066,0.118,0.059,0.0692,0.0646
S18V,0.107,0.0613,,0.0818,0.0626,0.0862,0.0767,0.0558,0.1,0.0697,0.0752,0.0952,0.0605,0.0768,0.0685,0.103,0.0599,,0.0645
